± gives the standard deviation of the averaged measurements. Growth of baker's yeast expressing single-residue variants of Pneumocystis jirovecii dihydrofolate reductase in 8.8 or 44 µM methotrexate (about 75% and 90% inhibition of the wild type). Selection coefficient per generation; 0 = like wild type, above 0 = less sensitive, below 0 = more sensitive or loss of function. No active / inactive call per row; the paper calls resistant above 0.220 (8.8 µM) or 0.243 (44 µM) together with a significance test. At 44 µM about 15% of codons end with one read or none, so the lowest values are floors (replicate rank correlation 0.74; 0.94 at 8.8 µM).
B1: UniProt A0EPZ9; numbered along this chain (parent)
chain: MDWQKSLTLIVALTLSRGIGLKNDLPWKLKSDMMFFSRVTSGLLVTRSTGQMNVVLMGRKTWESLPAHSRPLKNRINVVISRQEVLDLGGGAYHARSLDDALALLSQIYDSTSKIQLNRVFVIGGGELCKAAMEHSRLNRIIATVIHNEVDCDVFFPIDFRSSQSCLPWRKQDHSVLEAWVGSKVPQGKINENGFIYEFEMWIRDI

Variants of: B1
Test: selection coefficient against synonymous wild-type codons (log2 per generation); higher = faster growth than wild type
Conditions: with Saccharomyces cerevisiae carrying the variant on a plasmid
Method: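 Pooled growth of yeast carrying single-residue variants of P. jirovecii dihydrofolate reductase (own DFR1 gene intact), two passages at 30 °C, three cultures, sequenced before and after. Codons with under 15 starting reads are left out; codons of one change are averaged.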

| Variant | selection coefficient against synonymous wild-type codons (log2) (methotrexate 8.8 µM) | selection coefficient against synonymous wild-type codons (log2) (methotrexate 44 µM) |
| --- | --- | --- |
| D151F | -0.369 ± 0.026 | -0.297 ± 0.054 |
| C166P | -0.0379 ± 0.087 | -0.0488 ± 0.19 |
| M133W | -0.0911 ± 0.034 | -0.0361 ± 0.13 |
| N139Q | -0.126 ± 0.079 | -0.213 ± 0.045 |
| P26E | -0.0643 ± 0.046 | 0.112 ± 0.28 |
| S136E | 0.0357 ± 0.033 | 0.0387 ± 0.017 |
| T14H | 0.29 ± 0.026 | 0.324 ± 0.026 |
| T14V | 0.141 ± 0.042 | 0.201 ± 0.075 |
| T14I | -0.052 ± 0.027 | 0.0946 ± 0.035 |
| N193G | 0.00205 ± 0.052 | -0.0548 ± 0.14 |
| N193V | -0.237 ± 0.042 | -0.316 ± 0.17 |
| N193W | -0.331 ± 0.057 | -0.399 ± 0.053 |
| T112K | 0.0341 ± 0.047 | 0.04 ± 0.13 |
| L117P | 0.0863 ± 0.013 | 0.104 ± 0.097 |
| L117D | 0.0324 ± 0.046 | 0.0937 ± 0.012 |
| T61E | -0.577 ± 0.084 | -0.287 ± 0.064 |
| T61I | -0.513 ± 0.079 | -0.266 ± 0.085 |
| T61A | -0.288 ± 0.16 | -0.211 ± 0.074 |
| K60C | -0.22 ± 0.047 | -0.209 ± 0.1 |
| K60W | -0.309 ± 0.07 | -0.184 ± 0.051 |
| K60T | -0.124 ± 0.052 | -0.106 ± 0.12 |
| K30E | 0.0918 ± 0.012 | 0.0876 ± 0.057 |
| A179V | -0.316 ± 0.044 | -0.283 ± 0.12 |
| A179T | 0.0191 ± 0.025 | 0.0805 ± 0.091 |

| Variant | selection coefficient against synonymous wild-type codons (log2) (methotrexate 8.8 µM) | selection coefficient against synonymous wild-type codons (log2) (methotrexate 44 µM) |
| --- | --- | --- |
| L138I | -0.0156 ± 0.013 | -0.0583 ± 0.17 |
| M34G | 0.0225 ± 0.062 | 0.0424 ± 0.055 |
| M34D | 0.362 ± 0.011 | 0.341 ± 0.073 |
| L72P | 0.00245 ± 0.061 | 0.0929 ± 0.089 |
| L72M | 0.284 ± 0.022 | 0.323 ± 0.055 |
| N53H | -0.155 ± 0.085 | -0.117 ± 0.099 |
| L102Y | -0.0433 ± 0.0073 | -0.0507 ± 0.081 |
| L102G | -0.714 ± 0.078 | -0.316 ± 0.098 |
| V185C | -0.0593 ± 0.044 | -0.177 ± 0.14 |
| Q4F | -0.402 ± 0.14 | -0.147 ± 0.083 |
| Q4P | 0.00842 ± 0.086 | -0.0187 ± 0.11 |
| E200C | 0.358 ± 0.048 | 0.318 ± 0.039 |
| E200P | -0.599 ± 0.064 | -0.23 ± 0.06 |
| D87Y | -0.39 ± 0.055 | -0.0682 ± 0.38 |
| S69E | 0.325 ± 0.051 | 0.334 ± 0.036 |
| S69A | 0.00977 ± 0.079 | 0.00906 ± 0.081 |
| S69Q | 0.126 ± 0.045 | 0.117 ± 0.049 |
| K73V | -0.172 ± 0.058 | -0.178 ± 0.037 |
| K73P | 0.113 ± 0.11 | 0.0681 ± 0.15 |
| P157F | -0.601 ± 0.014 | -0.232 ± 0.046 |
| A131F | -0.359 ± 0.053 | -0.308 ± 0.045 |
| L86R | -0.03 ± 0.035 | 0.0415 ± 0.42 |
| L86I | -0.191 ± 0.021 | -0.239 ± 0.11 |
| I19E | 0.575 ± 0.049 | 0.76 ± 0.01 |

| Variant | selection coefficient against synonymous wild-type codons (log2) (methotrexate 8.8 µM) | selection coefficient against synonymous wild-type codons (log2) (methotrexate 44 µM) |
| --- | --- | --- |
| I19D | -0.0328 ± 0.082 | 0.247 ± 0.1 |
| Q172E | 0.00601 ± 0.044 | 0.0365 ± 0.032 |
| D99K | -0.373 ± 0.064 | -0.332 ± 0.087 |
| D99F | -0.5 ± 0.23 | -0.1 ± 0.012 |
| A143T | 0.0678 ± 0.046 | 0.0908 ± 0.11 |
| H135Y | -0.0963 ± 0.029 | -0.0302 ± 0.14 |
| G194P | -0.0853 ± 0.082 | -0.284 ± 0.14 |
| G194E | -0.0203 ± 0.055 | -0.063 ± 0.0026 |
| G194Q | -0.117 ± 0.078 | -0.04 ± 0.053 |
| D153W | -0.362 ± 0.049 | -0.474 ± 0.0092 |
| D153L | -0.307 ± 0.088 | -0.267 ± 0.087 |
| V145N | 0.0681 ± 0.041 | 0.0901 ± 0.19 |
| L167P | 0.0197 ± 0.053 | -0.126 ± 0.099 |
| R70L | 0.0146 ± 0.041 | -0.0211 ± 0.12 |
| R70H | -0.312 ± 0.22 | -0.149 ± 0.054 |
| R70S | -0.157 ± 0.079 | -0.155 ± 0.14 |
| Q187I | -0.0653 ± 0.082 | -0.171 ± 0.081 |
| W180C | 0.093 ± 0.1 | 0.0274 ± 0.048 |
| G18W | -0.331 ± 0.022 | -0.165 ± 0.14 |
| G18M | -0.231 ± 0.11 | -0.194 ± 0.14 |
| T46I | -0.31 ± 0.0099 | -0.161 ± 0.13 |
| G20V | -0.304 ± 0.26 | 0.104 ± 0.31 |
| K5V | 0.0757 ± 0.11 | 0.0453 ± 0.11 |
| S37C | -0.373 ± 0.15 | -0.205 ± 0.2 |

| Variant | selection coefficient against synonymous wild-type codons (log2) (methotrexate 8.8 µM) | selection coefficient against synonymous wild-type codons (log2) (methotrexate 44 µM) |
| --- | --- | --- |
| F36V | 0.556 ± 0.03 | 0.681 ± 0.05 |
| D24R | 0.0155 ± 0.11 | 0.0209 ± 0.15 |
| W27P | -0.293 ± 0.1 | -0.102 ± 0.09 |
| D100P | -0.565 ± 0.12 | -0.107 ± 0.11 |
| D100Y | -0.418 ± 0.086 | 0.0502 ± 0.53 |
| F160L | 0.107 ± 0.047 | 0.0286 ± 0.1 |
| F160D | 0.505 ± 0.031 | 0.607 ± 0.041 |
| M52P | -0.164 ± 0.13 | -0.16 ± 0.17 |
| M52L | -0.0965 ± 0.066 | -0.0904 ± 0.17 |
| M52G | -0.0875 ± 0.067 | -0.127 ± 0.16 |
| N23I | -0.039 ± 0.057 | 0.0142 ± 0.083 |
| N23Y | 0.0916 ± 0.045 | 0.153 ± 0.07 |
| N23R | -0.149 ± 0.078 | -0.102 ± 0.1 |
| G58L | -0.58 ± 0.12 | -0.313 ± 0.099 |
| T49F | -0.256 ± 0.036 | -0.0682 ± 0.14 |
| F195C | 0.14 ± 0.005 | 0.152 ± 0.011 |
| F195W | -0.0542 ± 0.032 | 0.00884 ± 0.35 |
| I196K | 0.0903 ± 0.07 | 0.0381 ± 0.086 |
| L44V | -0.104 ± 0.035 | -0.12 ± 0.14 |
| L44G | 0.179 ± 0.015 | 0.141 ± 0.052 |
| P66W | -0.431 ± 0.085 | -0.292 ± 0.036 |
| L43S | 0.175 ± 0.036 | 0.152 ± 0.056 |
| L43K | 0.177 ± 0.021 | 0.122 ± 0.12 |
| I203W | -0.201 ± 0.036 | -0.176 ± 0.07 |

| Variant | selection coefficient against synonymous wild-type codons (log2) (methotrexate 8.8 µM) | selection coefficient against synonymous wild-type codons (log2) (methotrexate 44 µM) |
| --- | --- | --- |
| S106F | -0.151 ± 0.13 | -0.0745 ± 0.21 |
| S106N | -0.0481 ± 0.057 | 0.0319 ± 0.077 |
| I80T | -0.672 ± 0.07 | -0.169 ± 0.071 |
| I80S | -0.576 ± 0.095 | -0.122 ± 0.1 |
| I80C | -0.63 ± 0.11 | -0.171 ± 0.053 |
| I80F | -0.703 ± 0.031 | -0.2 ± 0.057 |
| A132Q | -0.818 ± 0.14 | -0.383 ± 0.044 |
| A132P | -0.608 ± 0.15 | -0.225 ± 0.059 |
| R119H | 0.137 ± 0.0067 | 0.234 ± 0.13 |
| I142N | -0.474 ± 0.083 | -0.172 ± 0.06 |
| F156P | -0.155 ± 0.082 | -0.0508 ± 0.12 |
| S31M | -0.245 ± 0.013 | -0.234 ± 0.13 |
| S31C | -0.218 ± 0.11 | -0.154 ± 0.11 |
| S31I | -0.504 ± 0.089 | -0.256 ± 0.092 |
| R161N | 0.217 ± 0.027 | 0.18 ± 0.044 |
| Q116E | -0.0459 ± 0.044 | -0.014 ± 0.024 |
| R170H | -0.0186 ± 0.052 | -0.0684 ± 0.054 |
| G89F | -0.61 ± 0.24 | -0.264 ± 0.0049 |
| K22N | 0.0158 ± 0.073 | 0.0766 ± 0.1 |
| T40D | -0.581 ± 0.093 | -0.443 ± 0.014 |

Reference: the supplement of paper PMC11125491
